Target: T1, IscS (E. coli, UniProt P0A6B7 1-404, biotin (biotinylated IscS; site not stated))
T1 construct: IscS, cysteine desulfurase, the main partner of IscU; also called desulfurase IscS; biotinylated IscS
T1 sequence: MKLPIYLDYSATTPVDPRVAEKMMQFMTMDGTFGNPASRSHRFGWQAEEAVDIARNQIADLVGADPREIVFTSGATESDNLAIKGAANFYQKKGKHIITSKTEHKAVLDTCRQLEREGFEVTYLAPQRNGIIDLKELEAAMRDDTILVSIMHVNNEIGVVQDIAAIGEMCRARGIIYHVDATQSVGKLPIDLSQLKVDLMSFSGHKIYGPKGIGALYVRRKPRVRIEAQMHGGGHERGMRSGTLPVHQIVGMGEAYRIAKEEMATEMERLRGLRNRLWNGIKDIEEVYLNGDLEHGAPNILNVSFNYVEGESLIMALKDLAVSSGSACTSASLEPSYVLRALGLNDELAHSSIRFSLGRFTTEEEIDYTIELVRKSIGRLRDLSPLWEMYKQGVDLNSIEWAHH
Assay: BLI; biotinylated IscS immobilised on streptavidin-coated biosensors; IscU as purified (EDTA untreated), 0-5 uM; 25°C; 20 mM HEPES pH 7.5, 150 mM NaCl, 2 mM TCEP, 0.5 mg/mL BSA; aerobic; Octet Red
Conditions: both partners purified

B1: E. coli IscU_wt (natural protein)
chain: AYSEKVIDHYENPRNVGSFDNNDENVGSGMVGAPACGDVMKLQIKVNDEGIIEDARFKTYGCGSAIASSSLVTEWVKGKSLDEAQAIKNTDIAEELELPPVKIHCSILAEDAIKAAIADYKSKREAK
notes: IscU, iron-sulfur cluster scaffold protein of E. coli; wild type; also called IscU as purified; Zn^2+ free IscU; source: E. coli overexpression, purified (Ni-NTA, TEV cleavage from GST, Superdex 75 gel filtration)
Kd: 1.5 ± 0.3 µM
